# Source: PubChem BioAssay AID886 (National Center for Advancing Translational Sciences (NCATS), 2007)
# Out of some 73,000 compounds screened, about 2,500 (3.4%) were called active. The shares of active, inactive and inconclusive entries below differ from those in the screen. Calls follow the shape of the dose curve; as a rule, active = well fitted inhibition curve with a large enough effect; inconclusive = small, poorly fitted or top-dose-only effect; inactive = no such curve, though single readings can be large or run the other way. Where the call is inconclusive, the potency comes from a doubtful curve fit.
# Target: 3-hydroxyacyl-CoA dehydrogenase type-2 (Homo sapiens) (UniProt Q99714)
# Test: qHTS Assay for Inhibitors of HADH2 (Hydroxyacyl-Coenzyme A Dehydrogenase, Type II); also: nearly all actives have a fitted effect of over 60% in size
# Conditions: recombinant HADH2, NADH fluorescence, beta-hydroxybutyryl-CoA; activity change, negative = inhibition: at 57.1 µM (top of the series)
# Summary of the method: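 20 nM HADH2 + cpd, 15 min RT; add 1 mM NAD+/90 uM beta-hydroxybutyryl-CoA; kinetic fluorescence 360/450 nm, 4 min. Tris-HCl pH 9.0, 0.01% Tween-20.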
# % is scaled to controls: 0 for no effect and ±100 for the full control effect; potency is read from the fitted curve at half-maximal effect; tags tell the direction and shape of the fitted curve.
# Chain of UniProt Q99714 (Q99714 whole entry, looked up): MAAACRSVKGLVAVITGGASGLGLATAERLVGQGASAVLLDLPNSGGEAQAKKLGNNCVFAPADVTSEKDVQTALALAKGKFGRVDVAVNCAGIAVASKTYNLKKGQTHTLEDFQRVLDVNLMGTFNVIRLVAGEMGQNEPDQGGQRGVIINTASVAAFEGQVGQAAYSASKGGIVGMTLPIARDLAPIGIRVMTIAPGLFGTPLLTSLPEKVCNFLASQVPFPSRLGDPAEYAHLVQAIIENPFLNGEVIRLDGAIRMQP
# Chain of UniProt Q99714 (Q99714 whole entry, looked up): as above
Structure (SMILES),Potency,"activity change, negative = inhibition"
COc1cccc2c(=O)c3c(cnn3C)n(C)c12,"inconclusive: 39.8 µM [inhibitor, single point]",
COc1ccccc1N1CCN(c2ncnc3nc[nH]c23)CC1,inactive,
CCOC(=O)C1=C(C)NC(=O)NC1c1ccc(OC)c(CN2CCOCC2)c1 (stereo not given),"inconclusive: 39.8 µM [inhibitor, single point]",
CCCNC(=O)c1ccccc1NS(=O)(=O)c1ccc2c(c1)OCCO2,"inconclusive: 39.8 µM [inhibitor, single point]",
CCn1c(=O)n(CC(=O)NCc2ccco2)c(=O)c2ccccc21,inactive,
CCc1cc(C(=O)OC)c(NC(=O)c2cc(Br)cs2)s1,"inconclusive: 39.8 µM [inhibitor, single point]",
CCc1nnc(NS(=O)(=O)c2ccc(NC(=O)OC)cc2)s1,"inconclusive: 2 µM [inhibitor, partial curve]",
Cc1nn(-c2ccc(F)cc2F)c2c1-c1nc(N3CCCC3)ncc1CC2,"inconclusive: 39.8 µM [inhibitor, single point]",
O=C(CSc1nnc2scc(-c3ccccc3)n12)Nc1nsc(-c2ccccc2)n1,"inconclusive: 39.8 µM [inhibitor, single point]",
COc1ccc(C)cc1-n1nnnc1SC/C(O)=C(\C#N)c1nc2ccccc2[nH]1,"inconclusive: 15.8 µM [inhibitor, partial curve]",
Cc1ccc(N2CC(C)Cn3c2nc2c3c(=O)n(CC(=O)OCc3ccccc3)c(=O)n2C)cc1C (stereo not given),"inconclusive: 39.8 µM [inhibitor, single point]",
O=C1NC(c2ccccc2Cl)Nc2ccccc21 (stereo not given),active: 31.6 µM,
CCOCC(=O)Nc1c(C(=O)Nc2ccccc2OC)oc2ccccc12,active: 7.94 µM,
CCc1ccc2nc(NC3=NCN(CCOC)CN3)nc(C)c2c1,inactive,
COc1cccc(-c2cc(=O)c3cc(O)ccc3o2)c1,inactive,
COCCNc1ncnc2ccc(-c3ccccc3C)cc12,"inconclusive: 31.6 µM [inhibitor, single point]",
C=CCNc1nc2c3ccccc3n(C(C)=O)c2s1,"inconclusive: 12.6 µM [inhibitor, partial curve]",
COc1ccc(C2C(C#N)=C(N)OC3=C2C(=O)CCC3)c(OC)c1OC (stereo not given),inactive,
O=C(Cn1c(=O)oc2ccccc21)N1CCN(c2ccc(N3CCOCC3)nn2)CC1,"inconclusive: 39.8 µM [inhibitor, single point]",
Cc1ccc(-c2nnc(CSc3nc(C)nc4sc(C)c(C)c34)o2)cc1,inactive,
CCOC(=O)c1[nH]c(COC(=O)c2ccccc2NC(=O)c2ccco2)c(C(=O)OCC)c1C,inactive,
COc1ccc(N)c(OC)c1,inactive,
Cn1c2c(c(=O)n(C)c1=O)C(c1ccc(Br)cc1)Nc1ccccc1O2 (stereo not given),"inconclusive: 1 µM [inhibitor, full curve]",
N#CCSc1nc2c(cc1C#N)CCCC2,"inconclusive: 31.6 µM [inhibitor, single point]",
CN(C)S(=O)(=O)c1ccc2nc(NC(=O)c3cccnc3)sc2c1,"inconclusive: 31.6 µM [inhibitor, single point]",

Structure (SMILES),Potency,"activity change, negative = inhibition"
CC(=O)C1=C(C)OC(N)=C(C#N)C1c1ccco1 (stereo not given),"inconclusive: 0.0063 µM [inhibitor, full curve, poor fit]",
CCN1CCN(c2ncc(C(=O)Nc3c(F)cc(F)cc3Br)c3ccccc23)CC1,inactive,
COc1ccc(CC[N@+]2(C)COc3cc4oc(=O)cc(C)c4cc3C2)cc1OC,,inactive: 4.62% [at 11.4 µM]
Cc1nc(NC2=NCN(Cc3ccc4c(c3)OCO4)CN2)nc2ccccc12,inactive,
Cc1[nH]c2ccc(-c3n[nH]c(=S)n3C)cc2c1C,"inconclusive: 3.16 µM [inhibitor, partial curve]",
CCOC(=O)C1=C(CSc2nc(C)ccc2C#N)OC(N)=C(C#N)C1c1cccc(OC)c1OC (stereo not given),"inconclusive: 5.01 µM [inhibitor, full curve]",
CCn1c(SCC(=O)NCc2ccco2)nnc1-c1cccs1,"inconclusive: 31.6 µM [inhibitor, single point]",
Cc1nn(C(=O)c2cc3sccc3[nH]2)c(C)c1C,"inconclusive: 39.8 µM [inhibitor, single point]",
Cc1ccc(S(=O)(=O)N(C)Cc2cc3ccccc3[nH]c2=O)cc1,"inconclusive: 31.6 µM [inhibitor, single point]",
CCn1nnc(-c2ccccc2NC(=O)c2ccc(-n3cnnn3)cc2)n1,"inconclusive: 31.6 µM [inhibitor, single point]",
Cc1cc(N2CCCCC2)n2ncc(-c3ccccc3)c2n1,"inconclusive: 39.8 µM [inhibitor, single point]",
COc1ccc(-c2nc(C#N)c(NCCCN(C)C)o2)cc1OC,active: 31.6 µM,
Cc1ccc(N2CC(C(=O)Nc3ccc4c(c3)OCO4)CC2=O)cc1 (stereo not given),inactive,
COc1ccccc1-c1nnc(Nc2nc3c(OC)cccc3s2)o1,active: 31.6 µM,
CCN1CCN(C(=O)CCCCCn2c(=O)[nH]c3cc(C(=O)OC)ccc3c2=O)CC1,"inconclusive: 39.8 µM [inhibitor, single point]",
FC(F)(F)c1cccnc1N1CCN(c2ncnc3nc[nH]c23)CC1,"inconclusive: 15.8 µM [inhibitor, partial curve]",
CC1Cc2ccccc2N1c1ncnc2nc[nH]c12 (stereo not given),"inconclusive: 15.8 µM [inhibitor, partial curve]",
CCOC(=O)c1ccc(NC(=O)C(C)NS(=O)(=O)c2ccc(OC)cc2)cc1 (stereo not given),"inconclusive: 31.6 µM [inhibitor, single point]",
O=c1c(-c2ccc(Cl)cc2)nc2cncnc2n1Cc1ccccc1Cl,inactive,
O=C(NCc1ccco1)c1cc(-c2ccco2)on1,inactive,
Clc1ccc2c(c1)C1OCCC1C(c1ccco1)N2 (stereo not given),"inconclusive: 39.8 µM [inhibitor, single point]",
Fc1ccc(-c2cc3nc(-c4ccccc4)cc(N4CCOCC4)n3n2)cc1,active: 10 µM,
COc1ccccc1NC(=O)CSc1nnc(-c2ccccc2)o1,inactive,
Cc1cc2ccc(=O)oc2cc1OC[C@@H](O)C(C)(C)O,active: 1.26 µM,
COc1cc2c(cc1OC)-c1cc(NCc3ccccn3)nc(=O)n1CC2,active: 25.1 µM,

Structure (SMILES),Potency,"activity change, negative = inhibition"
Cc1nn(-c2ccccn2)c2c1C(c1ccsc1)C1=C(CCCC1=O)N2 (stereo not given),"inconclusive: 31.6 µM [inhibitor, single point]",
OB(O)O,inactive,
OCc1cn(-c2ccccc2)nc1-c1ccc2c(c1)OCCO2,inactive,
COc1ccc(-n2c(=O)cc(N3CCN(Cc4ccccc4)CC3)[nH]c2=O)cc1,"inconclusive: 25.1 µM [inhibitor, single point]",
CC1=C(C(=O)OCc2ccccc2)C(c2ccco2)n2ncnc2N1 (stereo not given),"inconclusive: 31.6 µM [inhibitor, single point]",
COc1ccccc1NC(=O)C1=C(C)Nc2nnnn2C1c1cc(Br)ccc1OC (stereo not given),inactive,
CCCCn1c(SCC(=O)c2ccc(OC)cc2OC)nc2cc(S(N)(=O)=O)ccc21,"inconclusive: 39.8 µM [inhibitor, single point]",
COC(=O)c1ccc(C(NC(=O)OCc2ccccc2)/C(F)=C/[C@@H](C)C(=O)NC2CCCCC2)cc1 (stereo not given in full),inactive,
COC(=O)CSc1nc(N2CCOCC2)c2c(c1C#N)CC(C)(C)N(C)C2,inactive,
O=C(CCCCCNc1nc(=S)[nH]c2ccccc12)N1CCN(c2ccccn2)CC1,"inconclusive: 31.6 µM [inhibitor, single point]",
COCCn1cc(C(=O)c2ccccc2OCC(=O)Nc2cc(C)on2)cc(C#N)c1=O,inactive,
Clc1cc(Cl)c(OCc2nc(-c3ccccn3)no2)cc1Cl,"inconclusive: 7.94 µM [inhibitor, single point]",
Cc1nc(N2CCOCC2)c2nc(-c3ccccc3)n(CC3CCN(C)CC3)c2n1,"inconclusive: 39.8 µM [inhibitor, single point]",
CCOc1ccc2[nH]c(=O)c(CN(CCO)C(=O)c3ccc(Br)cc3)cc2c1,"inconclusive: 12.6 µM [inhibitor, single point]",
CCCCCCS(=O)[C@H]1CS(=O)(=O)C[C@@H]1S(=O)CCCCCC (stereo not given in full),"inconclusive: 3.16 µM [inhibitor, full curve, poor fit]",
COC(=O)c1cc(=O)nc2sccn12,inactive,
COc1ccc(-c2csc(NC(C)=O)n2)cc1OC,"inconclusive: 31.6 µM [inhibitor, single point]",
NC(=O)c1ccccc1N=Cc1ccccn1,active: 31.6 µM,
CC1CCCN(c2nc3ccccc3nc2C(C#N)S(=O)(=O)c2ccccc2)C1 (stereo not given),"inconclusive: 0.398 µM [inhibitor, partial curve]",
Cc1ccc(O)c(NC(=O)c2ccco2)c1,inactive,
COC(=O)/C=C\c1cc(O)ccc1O,active: 0.0316 µM,
CCN(CC)S(=O)(=O)c1ccc2nc(NC(=O)c3cccs3)sc2c1,"inconclusive: 25.1 µM [inhibitor, partial curve]",
N#CC1=C(N)S[C@H](C(=O)C23CC4CC(CC(C4)C2)C3)[C@H]1c1ccncc1,"inconclusive: 31.6 µM [inhibitor, single point]",
CC(C)(C)n1nnnc1C(c1cc2cc3c(cc2[nH]c1=O)OCO3)N1CCN(c2ccccc2)CC1 (stereo not given),"inconclusive: 20 µM [inhibitor, single point]",
Clc1cccc(-c2ccc(/C=N/n3cnnc3)o2)c1,"inconclusive: 25.1 µM [inhibitor, partial curve]",
